Structures can show the parent of a compound that is named as a salt. This is one part of the list. Many values rest on one well or one pass, so single values are uncertain.
Columns and labels:
A549 [1] = assay: cell-surface PD-L1 MFI ratio relative to radiation alone (isotype-subtracted); higher = higher PD-L1 surface expression; details: inducer: radiation 8 Gy; 10 µM; 24 h
Experimental: (§1)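 A549 and H460 NSCLC cells were treated with each library drug at 10 uM, then with radiation (8 Gy) or cisplatin (4 uM), and incubated for 24 h. Cell-surface PD-L1 was measured by flow cytometry as an MFI ratio: (MFI drug+inducer - MFI isotype)/(MFI inducer alone - MFI isotype). Hits were defined as ratio < 0.75.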

NCI-H460 [2] = assay: as above; details: inducer: radiation 8 Gy; 10 µM; 24 h
Experimental: as §1

NCI-H460 [3] = assay: cell-surface PD-L1 MFI ratio relative to cisplatin alone (isotype-subtracted); higher = higher PD-L1 surface expression; details: inducer: cisplatin 4 uM; 10 µM; 24 h
Experimental: as §1

A549 [4] = assay: as above; details: inducer: cisplatin 4 uM; 10 µM; 24 h
Experimental: as §1
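Wherever cell-surface PD-L1 MFI ratio relative to radiation alone (isotype-subtracted) is given: surface PD-L1 on NSCLC cells stained with a PE-labelled anti-human PD-L1 antibody before flow cytometry, screening a library of roughly two hundred mostly kinase and epigenetic inhibitors.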

Structure (SMILES) | cell-surface PD-L1 MFI ratio (A549 [1]) | cell-surface PD-L1 MFI ratio (NCI-H460 [2]) | cell-surface PD-L1 MFI ratio (NCI-H460 [3]) | cell-surface PD-L1 MFI ratio (A549 [4])
CN(C)C(=N)NC(=N)N [Metformin] | inactive: 1.12 | inactive: 1.36 | inactive: 1.14 | –
Cc1cnc(NC(=O)Nc2cc(Br)c(C)cc2OC[C@@H]2CNCCO2)cn1 | inactive: 0.858 | inactive: 1.32 | inactive: 0.816 | –
CC(=O)c1c(C)c2cnc(Nc3ccc(N4CCNCC4)cn3)nc2n(C2CCCC2)c1=O | inactive: 0.848 | inactive: 0.863 | inactive: 1.16 | –
N#CC1(c2ccc(NC(=O)c3cccnc3NCc3ccncc3)cc2)CCCC1 [Apatinib] | inactive: 1.35 | inactive: 1.67 | inactive: 1.63 | –
CN1CCN(c2ccc(-c3cccc(CN4CCOCC4)c3)cc2NC(=O)c2c[nH]c(=O)cc2C(F)(F)F)CC1 | inactive: 0.916 | inactive: 1.02 | inactive: 0.976 | –
CC1(C)CCC(c2ccc(Cl)cc2)=C(CN2CCN(c3ccc(C(=O)NS(=O)(=O)c4ccc(N[C@H](CCN5CCOCC5)CSc5ccccc5)c(S(=O)(=O)C(F)(F)F)c4)cc3)CC2)C1 [Navitoclax (ABT-263)] | inactive: 2.09 | inactive: 1.12 | active: 0.625 | –
CCn1cc(-c2cccc(C(F)(F)F)c2)c2sc(C(=N)NC3CCS(=O)(=O)CC3)cc2c1=O | active: 0.727 | active: 0.72 | active: 0.594 | –
OCC1OC(O)CC(O)C1O [2-Deoxy-D-glucose] | inactive: 0.97 | inactive: 1.31 | inactive: 1.18 | –
CCn1c2ccccc2c2cc(-n3nncc3-c3ccccc3)ccc21 | inactive: 1.91 | inactive: 2.64 | inactive: 1.3 | –
CN1C(=O)c2sccc2N(C)c2nc(Nc3ccc(S(N)(=O)=O)cc3)ncc21 | – | inactive: 0.881 | inactive: 0.984 | inactive: 1.06
CC(C)(CO)n1cc(C(=O)c2cncc(NC(=O)Cc3ccc(Cl)cn3)c2)c2cnc(N)nc21 | inactive: 0.833 | inactive: 1.05 | inactive: 1.13 | –
COCC[n+]1c2c(n(Cc3cnccn3)c1C)C(=O)c1ccccc1C2=O [YM155 (Sepantronium Bromide)] | inactive: 0.97 | active: 0.601 | inactive: 1.46 | –
Cc1cc(Nc2cc(N)ncn2)c(=O)n2c1C(=O)NC21CCCCC1 [Tomivosertib (eFT-508)] | inactive: 0.807 | inactive: 1.03 | inactive: 1.11 | –
C/C(=C\C(=O)Nc1ccccc1C(=O)O)c1ccc2ccccc2c1 | – | inactive: 1.79 | inactive: 1.07 | active: 0.735
CC(=O)c1cnc2ccc(-c3cc(Cl)c(O)c(Cl)c3)nc2c1N[C@H]1CC[C@H](CN(C)C)CC1 | inactive: 2.21 | inactive: 1.08 | inactive: 1.3 | –
Cc1cc(-c2ncc(CC(=O)Nc3ccc(-c4cnccn4)cn3)cc2C)ccn1 | inactive: 1.02 | inactive: 1.43 | inactive: 1.72 | –
CC(C)[C@H]1C(=O)N[C@@H](CCCNC(=N)N)C(=O)NCC(=O)N[C@@H](CC(=O)O)C(=O)N[C@H](Cc2ccccc2)C(=O)N1C [Cilengitide trifluoroacetate] | – | inactive: 0.929 | active: 0.44 | active: 0.455
CCOc1cc2ncc(C#N)c(Nc3ccc(OCc4ccccn4)c(Cl)c3)c2cc1NC(=O)/C=C/CN(C)C [Neratinib (HKI-272)] | – | inactive: 1.19 | inactive: 1.11 | inactive: 0.841
CCC(C)(C)C(=O)O[C@H]1C[C@@H](C)C=C2C=C[C@H](C)[C@H](CC[C@@H]3C[C@@H](O)CC(=O)O3)[C@H]21 [Simvastatin] | inactive: 1.01 | inactive: 1.31 | inactive: 1.82 | –
CN(C)C/C=C/C(=O)Nc1ccc(C(=O)Nc2cccc(Nc3ncc(Cl)c(-c4c[nH]c5ccccc45)n3)c2)cc1 | inactive: 1.79 | inactive: 1.4 | inactive: 1.21 | –
O=C(O)CCCc1cc2cc(Cl)ccc2n1S(=O)(=O)c1ccc2ncsc2c1 [Lanifibranor(IVA-337)] | inactive: 1.14 | inactive: 1.23 | inactive: 1.21 | –
COc1cc2nc(N3CCCN(C)CC3)nc(NC3CCN(Cc4ccccc4)CC3)c2cc1OC | inactive: 1.78 | inactive: 1.95 | inactive: 1.26 | –
CCc1ccc(C(=O)Nc2cc(CN3CCN(C)CC3)cc(C(F)(F)F)c2)cc1C#Cc1cnc2ccnn2c1 | – | inactive: 1.04 | inactive: 0.84 | inactive: 1.09
CC(C)(C)c1nc(-c2ccc(NC(=O)Nc3cccc(C(F)(F)F)c3)c3ccccc23)c2c(N)nccn12 [kira6] | – | active: 0.667 | active: 0.734 | inactive: 2.67
CC(C)CCN1c2nc(Nc3cc(F)c(O)c(F)c3)ncc2N(C)C(=O)C1C (stereo unspecified) | inactive: 1.27 | inactive: 1.62 | inactive: 1.4 | –
O=c1cc(N2CCOCC2)oc2c(-c3cccc4c3sc3ccccc34)cccc12 | active: 0.74 | inactive: 0.786 | active: 0.542 | –

Structure (SMILES) | cell-surface PD-L1 MFI ratio (A549 [1]) | cell-surface PD-L1 MFI ratio (NCI-H460 [2]) | cell-surface PD-L1 MFI ratio (NCI-H460 [3]) | cell-surface PD-L1 MFI ratio (A549 [4])
C[C@@H]1CCN(C(=O)CC#N)C[C@@H]1N(C)c1ncnc2[nH]ccc12 | active: 0.748 | inactive: 0.881 | inactive: 1.33 | –
C[C@@H]1COCCN1c1cc(C2([S@](C)(=N)=O)CC2)nc(-c2cc[nH]c3nccc2-3)n1 | – | inactive: 1.09 | inactive: 1.32 | inactive: 1.44
C[C@]1(c2nc3c(C(N)=O)cccc3[nH]2)CCCN1 [Veliparib (ABT-888)] | – | inactive: 0.935 | active: 0.636 | active: 0.427
O=C(CCCCCCC(=O)Nc1ccccc1)NO [Vorinostat (SAHA, MK0683)] | – | active: 0.702 | inactive: 0.952 | inactive: 1.58
CC(C)(C)Cn1c(N)nc2ccc(-c3[nH]c(C(C)(C)C)nc3-c3ccc(F)cc3)nc21 | – | inactive: 1.06 | inactive: 0.96 | inactive: 1.06
CN1CCN(CCOc2cc(OC3CCOCC3)c3c(Nc4c(Cl)ccc5c4OCO5)ncnc3c2)CC1 [Saracatinib (AZD0530)] | – | inactive: 0.923 | active: 0.583 | active: 0.562
Cc1cc(C(C)Nc2ccccc2)c2nc(N3CCOCC3)cc(=O)n2c1 (stereo unspecified) | – | inactive: 0.976 | inactive: 0.952 | inactive: 0.798
O=C(O)c1ccc2c3c1cccc3c(=O)n1c3ccccc3nc21 | – | inactive: 1.02 | inactive: 1.04 | inactive: 1.43
CC(C)(C)NC(=O)c1cncn1C1CCN(c2ccc(-c3nnc(C(F)(F)F)o3)cn2)CC1 | – | inactive: 1.82 | inactive: 1.08 | active: 0.68
Nc1cccc(-c2cc3c(Oc4cccc(O)c4)ncnc3[nH]2)c1 | – | inactive: 1.23 | inactive: 1.31 | inactive: 1.28
CCC(=O)Nc1cccc(Oc2nc(Nc3ccc(N4CCN(C)CC4)cc3OC)ncc2Cl)c1 | – | inactive: 1.17 | inactive: 1.18 | inactive: 0.759
N#CC[C@H](C1CCCC1)n1cc(-c2ncnc3[nH]ccc23)cn1 | – | inactive: 1.12 | inactive: 1.47 | inactive: 1.37
Cc1ccc(CNc2ncnc3ccc(-c4ccc(CO)o4)cc23)o1 | – | inactive: 1.18 | inactive: 1.04 | active: 0.583
Cc1cc(Nc2cc(N3CCN(C)CC3)nc(Sc3ccc(NC(=O)C4CC4)cc3)n2)n[nH]1 [Tozasertib (VX-680, MK-0457)] | – | inactive: 1.54 | active: 0.706 | inactive: 0.862
Cc1[nH]c(/C=C2\C(=O)Nc3ccccc32)c(C)c1CCC(=O)O [Orantinib (TSU-68, SU6668)] | – | inactive: 1.05 | inactive: 1.02 | inactive: 0.885
COCCOc1nc(-c2ccc(Cl)c(Cl)c2)n(-c2ccc(NC(=O)CCl)cc2)n1 [MI-2 (MALT1 inhibitor)] | – | inactive: 1.2 | inactive: 1.13 | inactive: 0.862
CCOc1ccn(-c2ccc(F)cc2)c(=O)c1C(=O)Nc1ccc(Oc2ccnc(N)c2Cl)c(F)c1 | – | inactive: 1.05 | inactive: 1.67 | inactive: 1.53
O=C(N/N=C/c1ccc(O)c(O)c1)c1cc2ccccc2cc1O [Dynasore] | – | inactive: 1.11 | inactive: 0.792 | active: 0.75
Nc1ccccc1NC(=O)c1ccc(CNC(=O)OCc2cccnc2)cc1 [Entinostat (MS-275)] | – | inactive: 0.774 | inactive: 0.952 | inactive: 1.7
COc1ccc(C2CC(c3ccccc3)=NN2c2ccc(S(N)(=O)=O)cc2)cc1 (stereo unspecified) | – | inactive: 1.92 | inactive: 0.784 | active: 0.591
O=C(Nc1cc(C(F)(F)F)ccc1N1CCCCC1)c1ccncc1 | – | inactive: 1.67 | inactive: 1.16 | active: 0.65
C=CC(=O)N1CCC([C@@H]2CCNc3c(C(N)=O)c(-c4ccc(Oc5ccccc5)cc4)nn32)CC1 [Zanubrutinib] | – | inactive: 1.11 | inactive: 1.3 | inactive: 1.2
CCc1cnn2c(NCc3ccc[n+]([O-])c3)cc(N3CCCC[C@H]3CCO)nc12 | – | active: 0.613 | active: 0.689 | active: 0.602
C[C@@H](Oc1cc(-c2cnn(C3CCNCC3)c2)cnc1N)c1c(Cl)ccc(F)c1Cl | – | inactive: 1.14 | inactive: 1.5 | inactive: 1.43
O=c1cc(CN2CCOCC2)occ1OCCCCCSc1ccnc2cc(C(F)(F)F)ccc12 | – | inactive: 1.27 | inactive: 0.92 | active: 0.574
CCc1ccc(/C=C2/SC(=S)NC2=O)cc1 | – | inactive: 1 | inactive: 0.798 | active: 0.567

Source: the supplement of paper PMC8792480
